The source gives no read counts; variants with many changes may rest on few reads.
B1: OR4K15 (parent)
chain: GUUAACGGUCAUAGGCCAUGGAAACUAGGAGCACCAUUUCGCUGCCAGUGAAGAAAUGAACAAAGAAAAUCUGGGCCAGGCAGGCAUCAAAAGAAAUAGUCUUGCGCUCAACCAGAAAGUCUGUAAUCAUUUUAAGGGUA

Variants of: B1
Experiment: self-cleavage, relative activity (ratio to wild type); higher = more cleavage; in vitro, sequencing; the parent is a self-cleaving ribozyme

| Variant | self-cleavage |
| --- | --- |
| GUUAACGGUCAUAGGCCAUGGAAACUAGGAGCACCACUUCGCUGCCAGUGAAGAAAUGAACAAAGAAAAUCUGGGCCAGGCAGGCAUCAAAAGAAAAGGUCUUGCGCUCAACCAGAAAGUCUGUAACCGUUUUAAGGGUA | 0.31 |
| GUUAACGGUCAUAGGCCAUGGAAACUAGGAGCACCACUUCGCCGCCAGUGAAGAAAUGAACAAAGAAAGUCUGGGCCAGGCAGGCAACAAAAGAAAUAGUCUUGCGCUCAACCAGAAAGUCUGUAAUCAUUUUAAGGGUA | 1.3 |
| GUUAACGGUCAUAGGCCAUGGAAACUAGGAGCACCAGUUCGCUGCCAGUGAAGAAAUGAACAAAGCAAAUCAGGGCCAGGCAGGCAUCAAAAGAAACAGUCUUGCGCUCAACCAGAAAGUCUGUAAUCAUUUUAAGGGUA | 0.1 |
| GUUAACGGUCAUAGGCCAUGGAAACUAGGAGCACCACUUCGCUGCCAGAGAAGAAAUGAACAAAGAAAAUCUAGGCCAGGCAGGCAUCAAAAGAAAUAGUCUUGCGCUCAACCAGAAAGUCUGUAAUCAUUUUAAGGGUA | 0.1 |
| GUUAACGGUCAUAGGCCAUGGAAACUAGGAGCACCACUUCGCUGCCAGUGAAGAAAUGAACAAAGAAAAUCUGGGCCAGGCAGGCAUCAAAAGAAAAAGCCUUGCGCUCAACCAGAAAGUCUGUAGUCAUUAUAAGGGUA | 1.64 |
| GUUAACGGUCAUAGGCCAUGGAAACUAGGAGCACCACUUCGCAGCCAGUGAAGAAAUGAACAAAGAAAAUCUGGGCCAGGCAGGCAUCAAAAGAGAUAGUCUUGCGCUCAACCAGAAAGUCUGUAAUCAUUUUAAGGGUA | 2.54 |
| GUUAACGGUCAUAGGCCAUGGAAACUAGGAGCACCAUAUCGCUGCCAGUGGAGAAAUGAACAAAGAAAAUCUGGGCCAGGCAGGCAUCAAAAGAAAUAGUCUUGCGCCCAACCAGAAAGUCUGUAAUCAUUUUAAGGGUA | 0.01 |
| GUUAACGGUCAUAGGCCAUGGAAACUAGGAGCACCAUAUCGCUGCCGGUGAAGAAAUGAACAAAGAAAAUCUGGGCCAGGCAGGCAUCAAAUGAAAUAGUCUUGCGCUCAACCAGAAAGUCUGUCAUCAUUUUAAAGGUA | 0.85 |
| GUUAACGGUCAUAGGCCAUGGAAACUAGGAGCACCAUAUCGCUGCCAGUGGAGAAAUGAACAAAGAAAAUCUGGGCCAGGCAGGCAUCAAAAGAAAUUGUCUUGCGCUCAACCAGAAAGUCUGUAAUCAUUUUAAGGGUA | 1.9 |
| GUUAACGGUCAUAGGCCAUGGAAACUAGGAGCACCACUUCGCUGCCAGUGAAGAAAUGAACAAAGAAAAUCUGGGCCAGGCAGGCACCAAAAGAAACAGUCCUGCGCUCAACCAGAAAGUCUGUAAUCAUUUUAAGGGUA | 2.12 |
| GUUAACGGUCAUAGGCCAUGGAAACUAGGAGCACCAGUUCGCUGCCAGUGAAGAAAUGAACAUAGAAUAUCUGGGCCAGGCAGGCAUCAAAAGAAGUAGUCUUGCGCUCAACCAGAAAGUCUGUAAUCAUUUUAAGGGUA | 2.11 |
| GUUAACGGUCAUAGGCCAUGGAAACUAGGAGCACCACUUCGCCGCCAGUGAAGAAAUUGACAAAGAAAAUCUGGGCCAGGCAGGCAUCAAAAGAAAUAGUCCUGCGCUCAACCAGAAAGUCUGUAAUCAUUUUAAGGGUA | 2.39 |
| GUUAACGGUCAUAGGCCAUGGAAACUAGGAGCACCACUUCGCUGCCAGUGAAGAAACGAACAAAGAAAAUCUGGGCCAGGCAGGCAUCAAAAGAAGUAGUCUUGCGCUCAACCAGAAAGUCUGUAAUCAUUUUAAGGGUA | 1.27 |
| GUUAACGGUCAUAGGCCAUGGAAACUAGGAGCACCACUUCGCUGCCAGUGAAGAAACGAACAAAGAAAAUCUGGGCCAGGCAGGCAUCGAAAGAAAUAGUCUUGCGCUCAACCAGAAAGUCUGUAAUCAUUUUAAGGGUA | 1.09 |
| GUUAACGGUCAUAGGCCAUGGAAACUAGGAGCACCAGUUCGCUGCCAGUGAAGAAAUGAACAAAGAAAAUCUGGGCCAGGCAGGCAUCAAAAGAAAUAGUCUUGCGCUCAACCGGAAAGCCUGUAUUCAUUUUAAGGGUA | 0.19 |
| GUUAACGGUCAUAGGCCAUGGAAACUAGGAGCACCAGUUCGCUGCCAGUGAAGAAAUGAACAAAGAAAGUCUGGGCCAGGCAGGCAUCAAAAGAAAUAGUCCUGCGCCUAACCAGAAAGUCUGUAAUCAUUUUAAGGGUA | 0.02 |
| GUUAACGGUCAUAGGCCAUGGAAACUAGGAGCACCACUUCGCCGCCAGUGAAGAAAUGAACAAAGAAAAUCUGGGCCAGGCAGGCAUCAAAAGAAAUAGUCUCGCGCUCAGCCAGAAAGUCUGUAAUCAUUUUAAGGGUA | 0.01 |
| GUUAACGGUCAUAGGCCAUGGAAACUAGGAGCACCAGUUCGCUGCCAGUGAAGAAAUGGACAAAGAAAAUCUGGGCCAGGCAGGCAUCAAAAGAAACAGUCUUGCGCUCAACCAGAAAGUCUGUAAUCAUUUUAAGGGUA | 0.64 |
| GUUAACGGUCAUAGGCCAUGGAAACUAGGAGCACCACUUCGCUGCCAGUGAAGAAAUGAACAAAGAAAAUCCGGGCCAGGCAGGCAUCAAAAGAAAUGGUCUUGCGCUCAACCGGAAAGUCUGUAAUCAUUUUAAGGGUA | 2.25 |
| GUUAACGGUCAUAGGCCAUGGAAACUAGGAGCACCAGUUCACUGCCAGUGAAGAAAUGAGCAAGGAAAAUCUGGGCCAGGCAGGCAUCAAAAGAGAUAGUCUUGCGCUCAACCAGAAAGUCUGUAAUCAUUUUAAGGGUA | 0.82 |
| GUUAACGGUCAUAGGCCAUGGAAACUAGGAGCACCACUUCGCGGCCAGUGAAGAAAUGAACAAAGAAAAUCUGGGCCAGGCAGGCAUCAAAAGAAAUAGUCUCGCGCUCAACCAGAAAGUCUGUAAUCAUUUUAAGGGUA | 1.22 |

— the RNAGym collection of RNA variant scans (doi:10.7554/elife.90254)
